Reference: PubChem BioAssay (NCATS)
Inconclusive results, whose numbers are uncertain, are shown with a selection of clear calls. For part of these data: No potency is given beside an inconclusive call; the fits are too rough. For part of these data: A note “side channel” means that the fit belongs to a control or component signal, not to the main read-out. Activity calls are given as the source filed them. Unless noted, calls come from the whole dose curve; as a rule, active = well fitted curve in the direction sought with a large enough effect; inconclusive = small, poorly fitted or top-dose-only effect, or another doubt; inactive = no such curve, though single readings can be large; an effect the other way counts as inactive or inconclusive.

Assays:
[1] = biological target: Ubiquitin carboxyl-terminal hydrolase 1 (Homo sapiens) (UniProt O94782); assay: Inhibitors of USP1/UAF1: Pilot qHTS (AID 504865);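 note: rhodamine fluorescence freed from ubiquitin-rhodamine substrate followed over time; potency is the fitted concentration of half-maximal effect; nearly all actives have a fitted effect of over 35% in size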
UniProt O94782, sequence (O94782 whole entry, looked up): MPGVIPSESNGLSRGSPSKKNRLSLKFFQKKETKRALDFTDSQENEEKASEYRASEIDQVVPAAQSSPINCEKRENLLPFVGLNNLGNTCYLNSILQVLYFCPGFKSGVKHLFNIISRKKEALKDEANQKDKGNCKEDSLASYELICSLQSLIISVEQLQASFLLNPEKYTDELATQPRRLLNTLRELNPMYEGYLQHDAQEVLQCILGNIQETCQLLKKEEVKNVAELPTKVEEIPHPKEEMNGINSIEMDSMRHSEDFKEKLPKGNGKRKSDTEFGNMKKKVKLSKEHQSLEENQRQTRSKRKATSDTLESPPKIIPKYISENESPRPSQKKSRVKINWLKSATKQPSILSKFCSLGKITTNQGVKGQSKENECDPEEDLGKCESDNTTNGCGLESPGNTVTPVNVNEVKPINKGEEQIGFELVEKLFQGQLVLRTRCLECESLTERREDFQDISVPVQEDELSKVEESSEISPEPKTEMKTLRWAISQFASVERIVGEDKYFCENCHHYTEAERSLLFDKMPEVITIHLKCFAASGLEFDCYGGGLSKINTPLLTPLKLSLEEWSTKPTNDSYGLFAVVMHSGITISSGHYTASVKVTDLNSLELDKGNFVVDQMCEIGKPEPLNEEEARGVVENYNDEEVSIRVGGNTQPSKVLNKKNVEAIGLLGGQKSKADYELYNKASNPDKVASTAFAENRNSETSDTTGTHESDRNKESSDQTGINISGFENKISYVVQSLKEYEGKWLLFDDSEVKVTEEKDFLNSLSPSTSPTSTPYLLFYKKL
In short: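 1nM USP1/UAF1 + cpd, 15 min RT; start w/ Ub-Rho 150nM final; kinetic FL 480/540 nm, 6 reads q60 s. Buffer 50mM HEPES pH 7.8, 0.5mM EDTA, 1mM TCEP, 0.01% Tween-20, 0.1 mg/ml BSA.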

[2] = Cell Viability - H-4-II-E (AID 543); note: potency is the fitted concentration of half-maximal effect; nearly all actives have a fitted effect of over 35% in size
In short: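 Rat hepatoma H-4-II-E cells (1500/well) were plated, incubated 5 hr at 37 °C, then exposed to compounds for 40 hr at 37 °C. Cellular ATP was read by CellTiter-Glo luminescence; AC50 came from Hill-equation fits of concentration-response data.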

[3] = Cell Viability - LYMP2-004 (AID 966); details: LYMP2-004 lymphoblastoid cell viability, qHTS; activity change, negative = cytotoxicity: at 92.2 µM (top of the series);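 note: plate controls were DMSO only for no effect and tetraoctylammonium bromide control for full effect; nearly all actives have a fitted effect of over 65% in size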
In short: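 Human lymphoblastoid cells (2500/well) in complete medium were treated with compounds for 24 hr at 37 C, then intracellular ATP was measured by CellTiter-Glo luminescence. AC50 values came from Hill-equation fits of concentration-response data.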

[4] = biological target: Estrogen receptor (Homo sapiens) (UniProt P03372); assay: qHTS assay for small molecule antagonists of estrogen receptor alpha signaling (AID 588513; active = well fitted curve in the direction sought with a large enough effect in the signal ratio, with a control signal flat, not every such curve was filed as active; inconclusive = small, poorly fitted or top-dose-only effect, or effect the other way, or a change in a side signal; inactive = no such curve, though single readings can be large or run the other way; the % refers to the signal ratio; note: % is set by controls: 0 for no effect and ±100 for the full control effect); details: ER-alpha-UAS-bla HEK293, beta-lactamase ratio, antagonist mode; activity, negative = inhibition: at 76.9 µM (top of the series) unless noted
UniProt P03372, sequence (P03372 whole entry, looked up): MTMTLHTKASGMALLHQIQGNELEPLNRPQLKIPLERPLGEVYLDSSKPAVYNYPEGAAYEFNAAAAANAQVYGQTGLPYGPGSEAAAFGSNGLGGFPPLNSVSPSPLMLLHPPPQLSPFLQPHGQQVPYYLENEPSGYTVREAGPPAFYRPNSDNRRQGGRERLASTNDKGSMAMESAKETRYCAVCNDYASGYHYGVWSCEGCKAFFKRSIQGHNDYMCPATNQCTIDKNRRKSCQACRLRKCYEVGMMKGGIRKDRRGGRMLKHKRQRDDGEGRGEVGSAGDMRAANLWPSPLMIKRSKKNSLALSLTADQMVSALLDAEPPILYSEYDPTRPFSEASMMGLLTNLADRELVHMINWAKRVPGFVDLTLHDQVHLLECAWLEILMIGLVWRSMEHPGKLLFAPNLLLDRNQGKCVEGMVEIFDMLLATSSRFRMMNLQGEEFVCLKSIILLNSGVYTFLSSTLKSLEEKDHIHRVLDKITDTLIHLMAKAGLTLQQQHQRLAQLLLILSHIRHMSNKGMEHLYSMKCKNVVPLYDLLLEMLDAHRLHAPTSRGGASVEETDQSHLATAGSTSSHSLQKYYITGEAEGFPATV
In short: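 Beta-lactamase reporter, antagonist mode, HEK 293 GripTite cells; 0.5nM E2 stimulus, 18 h, 37 C; CCF4 dye 2 h RT; fluorescence. IC50 and efficacy from Hill fits, normalized to E2 and DMSO.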

[5] = biological target: Glucocorticoid receptor (Homo sapiens) (UniProt P04150); assay: qHTS assay for small molecule antagonists of glucocorticoid receptor signaling (AID 588533; active = well fitted inhibition curve with a large enough effect in the signal ratio, with a control signal flat, not every such curve was filed as active; inconclusive = small, poorly fitted or top-dose-only effect, or effect the other way, or a change in a side signal; the % refers to the signal ratio;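 note: cells stimulated with 2 nM dexamethasone as agonist; potency is the fitted concentration of half-maximal effect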); details: HeLa MMTV-bla, GRE beta-lactamase ratio, antagonist mode, 18 h; activity change, negative = inhibition: at 76.8 µM (top of the series) unless noted
UniProt P04150, sequence (P04150 whole entry, looked up): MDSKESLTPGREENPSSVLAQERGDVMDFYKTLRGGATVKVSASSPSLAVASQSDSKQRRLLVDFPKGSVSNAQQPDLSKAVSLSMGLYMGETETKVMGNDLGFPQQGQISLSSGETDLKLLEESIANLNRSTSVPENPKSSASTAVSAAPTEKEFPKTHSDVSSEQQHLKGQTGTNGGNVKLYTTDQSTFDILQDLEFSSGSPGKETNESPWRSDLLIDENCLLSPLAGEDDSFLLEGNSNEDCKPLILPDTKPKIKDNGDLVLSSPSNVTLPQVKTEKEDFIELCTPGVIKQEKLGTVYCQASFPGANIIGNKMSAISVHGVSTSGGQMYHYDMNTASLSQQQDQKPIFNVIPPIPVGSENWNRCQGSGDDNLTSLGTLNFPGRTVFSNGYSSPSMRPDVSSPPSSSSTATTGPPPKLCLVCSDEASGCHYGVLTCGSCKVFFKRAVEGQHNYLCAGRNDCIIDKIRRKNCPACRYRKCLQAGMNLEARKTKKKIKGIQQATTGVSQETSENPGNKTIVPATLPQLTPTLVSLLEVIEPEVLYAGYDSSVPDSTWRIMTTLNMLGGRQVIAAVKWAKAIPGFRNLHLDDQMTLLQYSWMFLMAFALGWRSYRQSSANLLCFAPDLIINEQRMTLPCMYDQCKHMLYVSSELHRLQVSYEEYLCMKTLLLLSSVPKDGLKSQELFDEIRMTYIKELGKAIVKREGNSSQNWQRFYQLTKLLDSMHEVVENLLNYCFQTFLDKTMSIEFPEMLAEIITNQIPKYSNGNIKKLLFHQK

[6] = biological target: Peroxisome proliferator-activated receptor delta (Homo sapiens) (UniProt Q03181); assay: qHTS assay for small molecule antagonists of peroxisome proliferator-activated receptor delta signaling (AID 588535; active = well fitted inhibition curve with a large enough effect in the signal ratio, with a control signal flat, not every such curve was filed as active; inconclusive = small, poorly fitted or top-dose-only effect, or effect the other way, or a change in a side signal; inactive = no such curve, though single readings can be large or run the other way; the % refers to the signal ratio; note: potency is the fitted concentration of half-maximal effect); details: HEK293T PPARd-UAS-bla, beta-lactamase FRET ratio, 18 h; activity change, negative = inhibition: at 76.7 µM (top of the series) unless noted
UniProt Q03181, sequence (Q03181 whole entry, looked up): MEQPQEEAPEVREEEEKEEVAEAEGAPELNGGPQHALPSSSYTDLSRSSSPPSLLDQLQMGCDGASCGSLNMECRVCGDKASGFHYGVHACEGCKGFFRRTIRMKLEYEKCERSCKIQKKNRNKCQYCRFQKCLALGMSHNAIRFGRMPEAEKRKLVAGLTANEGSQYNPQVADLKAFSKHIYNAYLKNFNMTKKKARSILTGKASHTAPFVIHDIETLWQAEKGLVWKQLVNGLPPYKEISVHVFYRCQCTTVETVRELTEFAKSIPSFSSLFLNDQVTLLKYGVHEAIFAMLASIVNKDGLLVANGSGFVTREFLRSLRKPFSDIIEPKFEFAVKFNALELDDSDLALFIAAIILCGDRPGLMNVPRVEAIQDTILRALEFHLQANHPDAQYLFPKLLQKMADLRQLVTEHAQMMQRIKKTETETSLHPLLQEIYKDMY
In short: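 GeneBLAzer PPAR-delta-UAS-bla HEK293T cells in medium with 2% charcoal/dextran FBS were preincubated 5 hrs at 37 C, then given compounds, incubated 18 hrs at 37 C, and read by CCF4 beta-lactamase fluorescence; IC50 from Hill fits.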

[7] = biological target: Peroxisome proliferator-activated receptor gamma (Homo sapiens) (UniProt P37231); assay: qHTS assay for small molecule agonists of peroxisome proliferator-activated receptor gamma signaling (AID 588536; active = well fitted curve in the direction sought with a large enough effect in the signal ratio, with a control signal flat, not every such curve was filed as active; inconclusive = small, poorly fitted or top-dose-only effect, or effect the other way, or a change in a side signal; inactive = no such curve, though single readings can be large or run the other way; the % refers to the signal ratio; note: potency is the fitted concentration of half-maximal effect); details: HEK293 PPARg-UAS-bla, beta-lactamase ratio, 16 h; activation: at 76.7 µM (top of the series), percent of rosiglitazone response, DMSO as zero unless noted
In short: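 Test agents, titrated, stimulated HEK293 UAS-bla cells overnight (16 h, 37 C). Substrate CCF4 was then added for two hours at room temperature before fluorescence reading.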

[8] = biological target: Vitamin D3 receptor (Homo sapiens) (UniProt P11473); assay: qHTS assay for small molecule antagonists of vitamin D receptor signaling (AID 588541; calls by dose curve;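 note: receptor activated by calcitriol during compound treatment; % is set by controls: 0 for no effect and ±100 for the full control effect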); details: HEK293T VDR-UAS-bla, beta-lactamase ratio, antagonist mode; activity change, negative = inhibition: at 76.7 µM (top of the series)
[9] = biological target: Retinoic acid receptor RXR-alpha (Homo sapiens) (UniProt P19793); assay: qHTS assay for small molecule agonists of retinoid X receptor alpha signaling (AID 588544; calls by dose curve; note: potency is the fitted concentration of half-maximal effect); details: HEK293T RXRa-UAS-bla, beta-lactamase reporter, 18 h; activation: at 76.7 µM (top of the series) unless noted
UniProt P19793, sequence (P19793 whole entry, looked up): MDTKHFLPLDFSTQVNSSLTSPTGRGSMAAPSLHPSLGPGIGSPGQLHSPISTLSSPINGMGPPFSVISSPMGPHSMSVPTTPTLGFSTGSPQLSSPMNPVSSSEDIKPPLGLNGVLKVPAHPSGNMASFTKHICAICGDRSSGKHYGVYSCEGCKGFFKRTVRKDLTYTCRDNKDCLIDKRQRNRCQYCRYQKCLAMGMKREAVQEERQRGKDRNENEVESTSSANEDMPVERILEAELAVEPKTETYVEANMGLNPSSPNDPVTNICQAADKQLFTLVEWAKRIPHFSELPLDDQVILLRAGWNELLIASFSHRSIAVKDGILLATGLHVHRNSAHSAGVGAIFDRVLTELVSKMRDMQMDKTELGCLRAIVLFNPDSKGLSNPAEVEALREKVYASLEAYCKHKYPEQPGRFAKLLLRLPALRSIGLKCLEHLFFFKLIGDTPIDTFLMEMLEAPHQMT

[10] = biological target: Retinoic acid receptor RXR-alpha (Homo sapiens) (UniProt P19793); assay: qHTS assay for small molecule antagonists of retinoid X receptor alpha signaling (AID 588546; active = well fitted inhibition curve with a large enough effect in the signal ratio, with a control signal flat, not every such curve was filed as active; inconclusive = small, poorly fitted or top-dose-only effect, or effect the other way, or a change in a side signal; inactive = no such curve, though single readings can be large or run the other way; the % refers to the signal ratio;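 note: cells stimulated with 9-cis-retinoic acid as agonist; % is set by controls: 0 for no effect and ±100 for the full control effect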); details: HEK293T RXRa-UAS-bla, beta-lactamase ratio, antagonist mode
In short: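 Beta-lactamase reporter inhibition, read as CCF4 fluorescence ratio (ex 405, em 460/530 nm) after 2 h at RT. HEK293T UAS-bla cells, 2500/well, were stimulated with 9-cis-RA at 500 or 100 nM final alongside test compound for 18 h at 37 C.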

[11] = S16 Schwann cell PMP22 intronic element firefly luciferase assay (AID 624032); note: potency is the fitted concentration of half-maximal effect; nearly all actives have a fitted effect of over 30% in size
In short: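 Rat S16 Schwann cells stably carrying a PMP22 intronic element-driven Fluc reporter were seeded overnight, then exposed to compounds for 24 h at 37 °C. Luminescence was normalized to PTC124 (positive control) and DMSO (0% activity).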

[12] = qHTS assay for small molecule agonists of the antioxidant response element (ARE) signaling pathway (AID 651741; active = well fitted activation curve with a large enough effect in the signal ratio; inconclusive = small, poorly fitted or top-dose-only effect, or effect the other way, or a change in a side signal; the % refers to the signal ratio; note: potency is the fitted concentration of half-maximal effect); details: HepG2 ARE-bla reporter, beta-lactamase FRET ratio, 16 h; activation: at 96 µM (top of the series) unless noted
In short: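 ARE-bla HepG2 cells (beta-lactamase reporter under ARE control) were plated at 2,000 cells/well, preincubated 5 h at 37 C/5% CO2, then treated with DMSO-dissolved compounds for 16 h at 37 C; LiveBLAzer B/G FRET substrate added, fluorescence read after 2 h at room temperature.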

[13] = qHTS assay to identify small molecules that stimulate interleukin-8 (IL-8) secretion (AID 651758; active = well fitted activation curve with a large enough effect in the signal ratio; inconclusive = small, poorly fitted or top-dose-only effect, or effect the other way, or a change in a side signal; the % refers to the signal ratio; note: potency is the fitted concentration of half-maximal effect); details: HTRF ratio (665/615); activation: at 92.2 µM (top of the series)
In short: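 THP-1, 2000 cells/well; cpd 16 h, 37 C; add cryptate + XL665 anti-IL-8 Abs; RT 1-3 h; TR-FRET read.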

[14] = system: ATS95; assay: qHTS profiling for inhibitors of Plasmodium falciparum proliferation (AID 504749); note: nearly all actives have a fitted effect of over 60% in size; note: potency is the fitted concentration of half-maximal effect;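 for activity, negative = inhibition: 0% = DMSO vehicle and full inhibition = artemisinin control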; details: P. falciparum in erythrocytes, SYBR Green DNA, 72 h
In short: (§1)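 P. falciparum-infected erythrocytes (0.3% parasitemia, 2.5% hematocrit final) were exposed to compounds for 72 h at 37 C in 5% CO2, then lysed with SYBR Green buffer overnight at room temperature; parasite DNA fluorescence was normalized to artemisinin and DMSO controls.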

[15] = system: CP215; assay: as above; details: P. falciparum in erythrocytes, SYBR Green DNA, 72 h
In short: as §1

[16] = system: CP256; assay: as above; details: P. falciparum in erythrocytes, SYBR Green DNA, 72 h; at 28.7 µM (top of the series)
In short: as §1

[17] = system: CP335; assay: as above; details: P. falciparum in erythrocytes, SYBR Green DNA, 72 h
In short: as §1

[18] = system: Dd2; assay: as above; details: P. falciparum in erythrocytes, SYBR Green DNA, 72 h; at 28.7 µM (top of the series)
In short: as §1

[19] = system: W2; assay: as above; details: P. falciparum in erythrocytes, SYBR Green DNA, 72 h; at 28.7 µM (top of the series)
In short: as §1
Tags give direction and shape of the fitted curve or compound fluorescence and quenching.

Question: Which Potency [1] does the source give for `S=C=NCc1ccccc1` here?
Answer: inconclusive [inhibitor, full curve, poor fit]

Question: With `O=C(O)[C@H]1[C@H]2CN[C@H](C(=O)O)[C@H]21` as the compound, how does the Potency [1] read?
Answer: inconclusive [inhibitor, full curve, poor fit]

Question: Which Potency [1] does the source give for `O=[N+]([O-])O[C@H]1CO[C@H]2[C@H]1OC[C@@H]2O[N+](=O)[O-]` here?
Answer: inconclusive [inhibitor, single point]

Question: For `OCC1OC(n2cnc3c(Cl)ncnc32)C(O)C1O` (centres undefined), which Potency [1] is on record?
Answer: inconclusive [inhibitor, partial curve, poor fit]

Question: Which Potency [1] does the source give for `CC1(C)C(O)CC(O)[C@]2(C)C1CC(O)[C@]1(C)C2CC[C@@]2(C)C(c3ccoc3)OC(=O)C3O[C@]312` (some centres undefined) here?
Answer: inconclusive [inhibitor, partial curve, poor fit]

Question: For `COC1CC(O[C@H]2/C(C)=C/CC3CC(C[C@]4(CCC(C)C(C5CCCCC5)O4)O3)OC(=O)[C@H]3C=C(C)/C(=N/O)C4OC/C(=C\C=C\[C@@H]2C)[C@@]43O)OC(C)C1O` (some centres undefined), which Potency [1] is on record?
Answer: inconclusive [inhibitor, partial curve, poor fit]

Question: Which Potency [2] does the source give for `C[C@]12CC[C@H]3[C@@H](CCC4=CC(=O)CC[C@@]43C)[C@@H]1CC[C@@H]2O` here?
Answer: inconclusive [falling, partial curve]

Question: What about the Potency [3] of the same compound?
Answer: inactive

Question: What about the activity, negative = inhibition [4] of the same compound?
Answer: inconclusive: -0.707%

Question: And the Potency [5]?
Answer: active: 7.08 µM

Question: What about the Potency [6] of the same compound?
Answer: inconclusive [fluorescent, side channel, single point]

Question: What about the Potency [7] of the same compound?
Answer: inconclusive [activator, partial curve]

Question: And the activity change, negative = inhibition [8]?
Answer: inconclusive: 5.35%

Question: And the Potency [9]?
Answer: active: 12.6 µM

Question: What about the max response [10] of the same compound?
Answer: inconclusive: 0.82%

Question: What about the Potency [11] of the same compound?
Answer: active: 8.09 µM

Question: What about the Potency [12] of the same compound?
Answer: inconclusive [activator, partial curve]

Question: And the Potency [13]?
Answer: inconclusive [activator, single point]

Question: What about the Potency [14] of the same compound?
Answer: inconclusive [inhibitor, single point]

Question: What about the Potency [15] of the same compound?
Answer: inconclusive [inhibitor, single point]

Question: What about the activity, negative = inhibition [16] of the same compound?
Answer: inactive: 13.2%

Question: And the Potency [17]?
Answer: inconclusive [inhibitor, single point]

Question: And the activity, negative = inhibition [18]?
Answer: inactive: -1.78%

Question: What about the activity, negative = inhibition [19] of the same compound?
Answer: inconclusive: -40.7% [inhibitor]
